Reference: publication PMC4336329 (PLoS ONE, 2015)
Out of some 310,000 compounds screened, about 2,200 (0.71%) showed an effect of 50% or more. Effects have a minus sign here. The list shows a part of the results.

Target: human ether-à-go-go-related gene (hERG) potassium channel (human, UniProt Q12809)
Assay: primary screen, population patch clamp on CHO cells stably expressing hERG

Chain of human ether-à-go-go-related gene (hERG) potassium channel (Q12809 whole entry, looked up): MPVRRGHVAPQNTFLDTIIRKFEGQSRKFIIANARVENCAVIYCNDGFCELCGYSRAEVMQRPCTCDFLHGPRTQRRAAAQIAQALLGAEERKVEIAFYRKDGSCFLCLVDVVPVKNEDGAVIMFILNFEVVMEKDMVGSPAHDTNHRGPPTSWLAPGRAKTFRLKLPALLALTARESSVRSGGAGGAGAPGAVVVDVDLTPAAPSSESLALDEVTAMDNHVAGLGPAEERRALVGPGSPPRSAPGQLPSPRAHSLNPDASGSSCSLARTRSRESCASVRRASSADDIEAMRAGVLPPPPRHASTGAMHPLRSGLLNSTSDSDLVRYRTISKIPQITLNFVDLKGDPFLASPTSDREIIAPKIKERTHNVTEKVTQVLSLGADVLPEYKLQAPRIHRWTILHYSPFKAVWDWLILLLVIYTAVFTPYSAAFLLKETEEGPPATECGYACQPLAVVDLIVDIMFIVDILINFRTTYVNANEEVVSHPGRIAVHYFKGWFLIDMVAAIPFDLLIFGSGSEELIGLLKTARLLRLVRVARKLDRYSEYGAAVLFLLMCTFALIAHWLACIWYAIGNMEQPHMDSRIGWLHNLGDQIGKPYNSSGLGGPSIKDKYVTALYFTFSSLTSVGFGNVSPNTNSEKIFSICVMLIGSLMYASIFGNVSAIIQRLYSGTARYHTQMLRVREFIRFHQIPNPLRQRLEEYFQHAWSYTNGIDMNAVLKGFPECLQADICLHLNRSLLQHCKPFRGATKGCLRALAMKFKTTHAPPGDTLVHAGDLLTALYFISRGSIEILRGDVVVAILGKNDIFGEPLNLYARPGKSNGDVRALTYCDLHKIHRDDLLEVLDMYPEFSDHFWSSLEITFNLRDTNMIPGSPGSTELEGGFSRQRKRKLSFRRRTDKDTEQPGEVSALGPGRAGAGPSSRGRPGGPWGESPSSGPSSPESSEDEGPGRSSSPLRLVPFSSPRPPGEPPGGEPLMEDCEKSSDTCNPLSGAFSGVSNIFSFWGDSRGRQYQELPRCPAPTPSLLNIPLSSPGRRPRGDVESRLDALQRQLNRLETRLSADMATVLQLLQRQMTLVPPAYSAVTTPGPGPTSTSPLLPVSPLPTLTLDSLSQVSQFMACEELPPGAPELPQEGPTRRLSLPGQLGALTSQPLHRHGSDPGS

| Structure (SMILES) | hERG current change (%, negative = inhibition) at 1uM [%] |
| --- | --- |
| Cc1nc(-c2cccc(NS(=O)(=O)c3cccc4ccccc34)c2)cs1 | 13 |
| Cc1ccc(S(=O)(=O)c2ccc(Cl)cc2)cc1S(=O)(=O)NC(C(=O)O)C(C)C (centres unmarked) | 17.3 |
| CCc1csc(CCNC(=O)C2CCC(=O)N(CCOC)C2)n1 (centres unmarked) | 14.5 |
| CCOc1ccc(/C=N/n2c(SC)nnc2-c2ccccc2)cc1OCC | 7.11 |
| Cc1cc(-c2c(C(=O)N3CCOCC3)c(C)nn2-c2cccc(C(F)(F)F)c2)no1 | 5.32 |
| CCOCCN1CCN(c2c(C)c(C)nc3cc(-c4cc(OC)cc(OC)c4)nn23)CC1 | -29.4 |
| O=C(NCCCc1ccccc1)c1ccc(-n2cncn2)c([N+](=O)[O-])c1 | -22.1 |
| CCCCNC(=S)N1CCN(Cc2ccc3c(c2)OCO3)CC1.O=C(O)C(=O)O | 4.66 |
| COc1cc(OC)cc(-c2c(-c3cccs3)c3cc(-c4ccc(N(C)C)nc4)ccc3n2C)c1 | 9.24 |
| O=C(OCC(=O)N1CCC(Cc2ccccc2)CC1)c1ccccc1 | 12.8 |
| O=C(NNC(=O)c1cc(C(F)(F)F)cc(C(F)(F)F)c1)c1ccc(Cl)cc1 | 7.75 |
| S=c1[nH]nc(-c2ccncc2)n1/N=C/c1cccc(Cl)c1 | 8.7 |
| CCOC(=O)N1C2=NC(C(=O)OC)=C(C(=O)OC)[C@@H]3N(Cc4ccccc4)c4ccccc4[C@]23C[C@H]1C(=O)OC | 8.88 |
| CC(=O)Nc1cccc(NC(=O)CCNC(=O)c2ccc(Cl)cc2)c1 | 12.8 |
| C=CCn1c2ccccc2c(=O)c2cc(C#CC[C@@H](C)O)ccc21 | 6.55 |
| Cc1ccc(NC(=O)c2cccc(NC(=O)/C=C/c3ccco3)c2)cc1C | 17.2 |
| CCOc1ccc(CC(=O)Nc2ccc(S(=O)(=O)N3CCCC3)cc2)cc1 | 13.7 |
| CC(=O)N1CCC(C(=O)Nc2cc(C)cc(C)c2)CC1 | 13.5 |
| O=S(=O)(c1cccs1)N1CCC(CO)(Cc2cccc(F)c2)CC1 | 5.2 |
| CCCCCC(=O)Nc1c(-c2ccc(OC)cc2)c(=O)c2ccccc2n1C | 8.68 |
| Cc1c(C(=O)NCc2ccccn2)sc2nc(-c3ccccc3)cn12 | 10 |
| O=C(c1cccc(S(=O)(=O)N2CCOCC2)c1)N1CCN(C/C=C/c2ccccc2)CC1 | -11.4 |
| COc1ccc2[nH]c3ccccc3c2c1 | 6.6 |
